# In PubChem BioAssay (NCATS):
# Inconclusive results, whose numbers are uncertain, are shown with a selection of clear calls. Potencies beside an inconclusive call are fits to weak or partial responses and may not hold up. Calls of active or inactive are those of the source. The call rests on the fitted dose curve; in most records, active means well fitted curve in the direction sought with a large enough effect; inconclusive means small, poorly fitted or top-dose-only effect, or another doubt; inactive means no such curve, though single readings can be large; an effect the other way counts as inactive or inconclusive.
# Tests used:
# [1] = P-glycoprotein substrates identified in KB-8-5-11 adenocarcinoma cell line, qHTS therapeutic library screen (AID 1346987); further: nearly all actives have a fitted effect of over 65% in size
# In short: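 KB-8-5-11, a colchicine-selected P-gp-overexpressing KB-3-1 subline, was grown without colchicine for the assay. Cells were seeded at 500 cells/well, dosed in concentration-response and incubated 72 h at 37 degree C, 5% CO2. Viability was read by CellTiter-Glo luminescence.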
# [2] = Primary qHTS for inhibitors of nuclear receptor binding SET domain protein 2 (NSD2) in an isogenic RCH-ACV NSD2 p.E1099K mutant (9B) (AID 1645876); further: nearly all actives have a fitted effect of over 70% in size
# [3] = Primary qHTS for inhibitors of nuclear receptor binding SET domain protein 2 (NSD2) in an RCH-ACV wild type WT cells (2C) (AID 1645877); conditions: activity change, negative = cell killing: at 44.9 µM (top of the series); further: nearly all actives have a fitted effect of over 70% in size
# [4] = system: CRL-7250; assay: Cytotoxic Profiling of Annotated Libraries Using Quantitative High-Throughput Screening (AID 1296008); conditions: Five cell lines viability, CellTiter-Glo ATP luminescence, 48-72 h; max response: hits give low values; further: nearly all actives have a fitted effect of over 60% in size; on max response: on the % scale 0 is the no-effect control and ±100 the full control effect
# In short: (§1)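 Compounds were pin-transferred onto cells and incubated 48 or 72 hr at 37 degree Celsius, 95% humidity. CellTiter-Glo was added, plates sat 10 min at room temperature, then ATP-coupled luminescence was imaged as the viability read-out.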
# [5] = system: HEK293; assay: as above; conditions: Five cell lines viability, CellTiter-Glo ATP luminescence, 48-72 h; max response: hits give low values
# In short: as §1
# [6] = system: HaCat; assay: as above; conditions: Five cell lines viability, CellTiter-Glo ATP luminescence, 48-72 h; max response: hits give low values
# In short: as §1
# [7] = system: NIH3T3; assay: as above; conditions: Five cell lines viability, CellTiter-Glo ATP luminescence, 48-72 h; max response: hits give low values
# In short: as §1
# [8] = system: C33A; assay: Primary qHTS to identify gynecologic anti-cancer compounds using libraries of approved drugs and bioactive compounds (AID 1345084); conditions: Gynecologic cancer cell panel viability, ATPlite luminescence, 48 h; series mostly up to 57.5 µM; further: nearly all actives have a fitted effect of over 55% in size; on activity change, negative = cytotoxicity: on the % scale 0 is the no-effect control and ±100 the full control effect
# In short: (§2)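 Luminescence from the ATPlite ATP-monitoring reagent indicates viable cell number; lower signal means cytotoxicity. Cells received compound 16 h after seeding and were exposed for 48 h across five concentrations.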
# [9] = system: CAOV3; assay: as above; conditions: Gynecologic cancer cell panel viability, ATPlite luminescence, 48 h; series mostly up to 57.5 µM
# In short: as §2
# [10] = system: Hek293T; assay: as above; conditions: Gynecologic cancer cell panel viability, ATPlite luminescence, 48 h, control line for the selectivity index; series mostly up to 57.5 µM
# In short: as §2
# [11] = system: JEG-3; assay: as above; conditions: Gynecologic cancer cell panel viability, ATPlite luminescence, 48 h; series mostly up to 57.5 µM
# In short: as §2
# [12] = system: PA-1; assay: as above; conditions: Gynecologic cancer cell panel viability, ATPlite luminescence, 48 h; series mostly up to 57.5 µM
# In short: as §2
# [13] = system: SKOV3; assay: as above; conditions: Gynecologic cancer cell panel viability, ATPlite luminescence, 48 h; series mostly up to 57.5 µM
# In short: as §2
# [14] = system: Tov-21-G; assay: as above; conditions: Gynecologic cancer cell panel viability, ATPlite luminescence, 48 h; activity change, negative = cytotoxicity: at 57.5 µM (top of the series)
# In short: as §2
# [15] = system: CASKI; assay: as above; conditions: Gynecologic cancer cell panel viability, ATPlite luminescence, 48 h; activity change, negative = cytotoxicity: at 57.5 µM (top of the series)
# In short: as §2
# [16] = system: Es-2; assay: as above; conditions: Gynecologic cancer cell panel viability, ATPlite luminescence, 48 h; series mostly up to 57.5 µM
# In short: as §2
# [17] = system: OV90; assay: as above; conditions: Gynecologic cancer cell panel viability, ATPlite luminescence, 48 h; series mostly up to 57.5 µM
# In short: as §2
# [18] = system: HeLa; assay: as above; conditions: Gynecologic cancer cell panel viability, ATPlite luminescence, 48 h; series mostly up to 57.5 µM
# In short: as §2
# [19] = system: Tov112D; assay: as above; conditions: Gynecologic cancer cell panel viability, ATPlite luminescence, 48 h; activity change, negative = cytotoxicity: at 57.5 µM (top of the series)
# In short: as §2
# Potency means the concentration at half of the fitted maximal effect; tags describe the fitted curve by direction and shape.
smiles,measurement,setting,value
C=C1C(=O)O[C@H]2CC(=C)[C@H]3CC[C@@](C)(O)[C@@H]3CC12 (stereo not given in full),Potency,[1],"inconclusive: 29.1 µM [inhibitor, single point]"
same,Potency,[2],active: 12.9 µM
same,Potency,[3],"inconclusive: 3.25 µM [inhibitor, full curve, poor fit]"
same,Potency,[4],"inconclusive: 25.9 µM [inhibitor, partial curve, poor fit]"
same,Potency,[5],"inconclusive: 29.1 µM [inhibitor, single point]"
same,Potency,[6],"inconclusive: 32.6 µM [inhibitor, single point]"
same,Potency,[7],"inconclusive: 23.1 µM [inhibitor, partial curve, poor fit]"
same,Potency,[8],"inconclusive: 39.8 µM [cytotoxic, single point]"
same,Potency,[9],"inconclusive: 39.8 µM [cytotoxic, single point]"
same,Potency,[10],"inconclusive: 39.8 µM [cytotoxic, single point]"
same,Potency,[11],"inconclusive: 39.8 µM [cytotoxic, single point]"
same,Potency,[12],"inconclusive: 35.5 µM [cytotoxic, single point]"
same,Potency,[13],"inconclusive: 39.8 µM [cytotoxic, single point]"
same,Potency,[14],"inconclusive: 28.2 µM [cytotoxic, single point]"
O=c1c(-n2ccnn2)c[nH]n1-c1cc(N2CCOCC2)ncn1,Potency,[4],"inconclusive: 11.7 µM [inhibitor, partial curve, poor fit]"
same,Potency,[5],"inconclusive: 2.95 µM [inhibitor, full curve, poor fit]"
same,Potency,[6],active: 1.86 µM
same,Potency,[7],"inconclusive: 14.8 µM [inhibitor, partial curve, poor fit]"
CS(=O)(=O)c1ccc(-c2nnc(/C=C/c3nnc(-c4ccc(C#N)cc4)o3)n2-c2ccccc2Cl)nc1,Potency,[1],"inconclusive: 18.4 µM [inhibitor, single point]"
same,Potency,[4],"inconclusive: 0.164 µM [inhibitor, full curve, poor fit]"
same,Potency,[5],active: 11.6 µM
same,outcome,[6],inactive
same,max response,[7],inactive: -6.1%
same,Potency,[10],"inconclusive: 39.8 µM [cytotoxic, single point]"
same,Potency,[13],inactive
Nc1ncnc2c1nc(Cl)n2C1OC2COP(=O)(O)OC2C1O (stereo not given),Potency,[4],active: 6.51 µM
same,Potency,[5],active: 1.64 µM
same,Potency,[6],"inconclusive: 0.92 µM [inhibitor, full curve]"
same,Potency,[7],active: 5.8 µM
same,Potency,[8],active: 7.94 µM
same,Potency,[9],active: 5.62 µM
same,Potency,[15],"inconclusive: 15.8 µM [cytotoxic, partial curve]"
same,Potency,[16],active: 10 µM
same,Potency,[10],active: 10 µM
same,Potency,[11],active: 15.8 µM
same,Potency,[17],"inconclusive: 7.94 µM [cytotoxic, partial curve]"
same,Potency,[13],"inconclusive: 7.94 µM [cytotoxic, partial curve, poor fit]"
same,Potency,[14],active: 8.91 µM
O=c1cc(N2CCOCC2)nc2c3ccccc3ccn12,Potency,[1],"inconclusive: 18.4 µM [inhibitor, partial curve]"
same,Potency,[2],"inconclusive: 2.3 µM [inhibitor, full curve]"
same,Potency,[3],"inconclusive: 2.9 µM [inhibitor, full curve, poor fit]"
same,Potency,[4],"inconclusive: 29.1 µM [inhibitor, single point]"
same,Potency,[5],"inconclusive: 18.4 µM [inhibitor, single point]"
same,Potency,[6],"inconclusive: 32.6 µM [inhibitor, partial curve, poor fit]"
same,max response,[7],inactive: -3.69%
same,Potency,[9],"inconclusive: 39.8 µM [cytotoxic, partial curve, poor fit]"
same,Potency,[15],"inconclusive: 4.47 µM [cytotoxic, full curve]"
same,Potency,[13],"inconclusive: 25.1 µM [cytotoxic, single point]"
C=CC(=O)Nc1cccc(CN2C(=O)N(c3c(Cl)c(OC)cc(OC)c3Cl)Cc3cnc(NCCCCN(CC)CC)nc32)c1,Potency,[4],active: 10.3 µM
same,Potency,[5],active: 16.4 µM
same,Potency,[6],"inconclusive: 29.1 µM [inhibitor, single point]"
same,Potency,[7],"inconclusive: 18.4 µM [inhibitor, single point]"
same,Potency,[8],"inconclusive: 28.2 µM [cytotoxic, single point]"
same,Potency,[9],"inconclusive: 31.6 µM [cytotoxic, single point]"
same,Potency,[15],"inconclusive: 39.8 µM [cytotoxic, single point]"
same,Potency,[18],"inconclusive: 39.8 µM [cytotoxic, single point]"
same,Potency,[12],"inconclusive: 22.4 µM [cytotoxic, partial curve]"
same,Potency,[13],"inconclusive: 35.5 µM [cytotoxic, partial curve, poor fit]"
same,Potency,[14],"inconclusive: 25.1 µM [cytotoxic, partial curve]"
same,Potency,[19],"inconclusive: 39.8 µM [cytotoxic, single point]"
O=C(N/N=C/c1ccccc1O)c1ccncc1,Potency,[2],active: 6.68 µM
same,Potency,[3],active: 23.7 µM
same,Potency,[4],"inconclusive: 26.6 µM [inhibitor, single point]"
same,Potency,[5],"inconclusive: 33.5 µM [inhibitor, single point]"
same,max response,[6],inactive: -6.14%
same,Potency,[15],"inconclusive: 28.2 µM [cytotoxic, single point]"
same,Potency,[16],"inconclusive: 25.1 µM [cytotoxic, single point]"
same,Potency,[17],"inconclusive: 20 µM [cytotoxic, single point]"
same,Potency,[12],"inconclusive: 39.8 µM [cytotoxic, single point]"
same,Potency,[14],"inconclusive: 35.5 µM [cytotoxic, partial curve, poor fit]"
same,Potency,[19],"inconclusive: 25.1 µM [cytotoxic, single point]"
CCCc1cc2c(N3CCN(C4=NCC(C)(C)S4)CC3)ncnc2s1,Potency,[1],"inconclusive: 6.51 µM [inhibitor, partial curve]"
same,Potency,[2],"inconclusive: 11.5 µM [inhibitor, partial curve]"
same,Potency,[3],"inconclusive: 9.16 µM [inhibitor, partial curve]"
same,Potency,[4],"inconclusive: 4.61 µM [inhibitor, full curve, poor fit]"
same,Potency,[5],active: 5.8 µM
same,outcome,[6],inactive
same,Potency,[7],"inconclusive: 20.6 µM [inhibitor, single point]"
same,Potency,[10],"inconclusive: 20 µM [cytotoxic, single point]"
same,Potency,[17],"inconclusive: 11.2 µM [cytotoxic, partial curve]"
same,Potency,[13],active: 25.1 µM
C=C[C@@]1(C)CC(=O)[C@]2(O)[C@@]3(C)[C@@H](O)CCC(C)(C)[C@@H]3[C@H](O)[C@H](OC(C)=O)[C@@]2(C)O1,Potency,[2],active: 0.841 µM
same,Potency,[3],"inconclusive: 7.5 µM [inhibitor, partial curve]"
same,max response,[4],inactive: 2.74%
same,max response,[5],inactive: -3.5%
same,Potency,[6],"inconclusive: 1.19 µM [inhibitor, partial curve, poor fit]"
same,Potency,[7],"inconclusive: 29.9 µM [inhibitor, single point]"
same,Potency,[11],inactive
same,Potency,[13],inactive
C=C1C(=O)O[C@@H]2[C@H]1CCC(C)=C1CCC(=O)O[C@]12C,Potency,[1],"inconclusive: 29.1 µM [inhibitor, single point]"
same,Potency,[4],"inconclusive: 29.1 µM [inhibitor, single point]"
same,Potency,[5],active: 14.6 µM
same,Potency,[6],"inconclusive: 23.1 µM [inhibitor, single point]"
same,Potency,[7],"inconclusive: 25.9 µM [inhibitor, single point]"
same,Potency,[8],"inconclusive: 39.8 µM [cytotoxic, partial curve, poor fit]"
same,Potency,[9],"inconclusive: 39.8 µM [cytotoxic, single point]"
same,Potency,[16],"inconclusive: 39.8 µM [cytotoxic, single point]"
same,Potency,[10],"inconclusive: 31.6 µM [cytotoxic, partial curve, poor fit]"
same,Potency,[11],"inconclusive: 31.6 µM [cytotoxic, single point]"
same,Potency,[17],"inconclusive: 22.4 µM [cytotoxic, single point]"
same,Potency,[12],"inconclusive: 22.4 µM [cytotoxic, single point]"
same,Potency,[13],"inconclusive: 22.4 µM [cytotoxic, single point]"
same,Potency,[14],"inconclusive: 28.2 µM [cytotoxic, single point]"
CC#C[C@@H](CC(=O)O)c1ccc(OCc2cccc(-c3ccc(C(F)(F)F)cc3)c2)cc1,Potency,[4],"inconclusive: 25.9 µM [inhibitor, single point]"
same,Potency,[5],"inconclusive: 18.4 µM [inhibitor, single point]"
same,max response,[6],inactive: -75.8%
same,Potency,[7],"inconclusive: 29.1 µM [inhibitor, single point]"
same,Potency,[16],"inconclusive: 39.8 µM [cytotoxic, single point]"
same,Potency,[18],"inconclusive: 31.6 µM [cytotoxic, partial curve, poor fit]"
same,Potency,[12],"inconclusive: 17.8 µM [cytotoxic, partial curve, poor fit]"
O=C(c1ccccc1)c1ccc2nc(NC(=O)c3csc(C4CCN(c5ncnc6ccsc56)CC4)n3)[nH]c2c1,Potency,[4],"inconclusive: 14.6 µM [inhibitor, partial curve]"
same,Potency,[5],active: 5.17 µM
same,Potency,[6],"inconclusive: 29.1 µM [inhibitor, single point]"
same,Potency,[7],"inconclusive: 20.6 µM [inhibitor, single point]"
same,Potency,[8],active: 15.8 µM
same,Potency,[9],"inconclusive: 28.2 µM [cytotoxic, single point]"
same,Potency,[15],"inconclusive: 20 µM [cytotoxic, single point]"
same,Potency,[16],"inconclusive: 14.1 µM [cytotoxic, partial curve]"
same,Potency,[18],"inconclusive: 20 µM [cytotoxic, partial curve, poor fit]"
same,Potency,[10],active: 8.91 µM
same,Potency,[17],active: 17.8 µM
same,Potency,[12],"inconclusive: 2.51 µM [cytotoxic, full curve, poor fit]"
same,Potency,[13],"inconclusive: 39.8 µM [cytotoxic, single point]"
same,Potency,[14],"inconclusive: 22.4 µM [cytotoxic, partial curve, poor fit]"
same,Potency,[19],active: 12.6 µM
